Data published in PMC4336329 (PLoS ONE, 2015).
In all, about 310,000 compounds went through this assay and about 2,200 (0.71%) showed an effect of 50% or more. The effect is printed as a negative number. The list shows a part of the results.

These molecules were tested against human ether-à-go-go-related gene (hERG) potassium channel (human, UniProt Q12809) (assay: primary screen, population patch clamp on CHO cells stably expressing hERG).
Sequence of human ether-à-go-go-related gene (hERG) potassium channel (Q12809 whole entry, looked up): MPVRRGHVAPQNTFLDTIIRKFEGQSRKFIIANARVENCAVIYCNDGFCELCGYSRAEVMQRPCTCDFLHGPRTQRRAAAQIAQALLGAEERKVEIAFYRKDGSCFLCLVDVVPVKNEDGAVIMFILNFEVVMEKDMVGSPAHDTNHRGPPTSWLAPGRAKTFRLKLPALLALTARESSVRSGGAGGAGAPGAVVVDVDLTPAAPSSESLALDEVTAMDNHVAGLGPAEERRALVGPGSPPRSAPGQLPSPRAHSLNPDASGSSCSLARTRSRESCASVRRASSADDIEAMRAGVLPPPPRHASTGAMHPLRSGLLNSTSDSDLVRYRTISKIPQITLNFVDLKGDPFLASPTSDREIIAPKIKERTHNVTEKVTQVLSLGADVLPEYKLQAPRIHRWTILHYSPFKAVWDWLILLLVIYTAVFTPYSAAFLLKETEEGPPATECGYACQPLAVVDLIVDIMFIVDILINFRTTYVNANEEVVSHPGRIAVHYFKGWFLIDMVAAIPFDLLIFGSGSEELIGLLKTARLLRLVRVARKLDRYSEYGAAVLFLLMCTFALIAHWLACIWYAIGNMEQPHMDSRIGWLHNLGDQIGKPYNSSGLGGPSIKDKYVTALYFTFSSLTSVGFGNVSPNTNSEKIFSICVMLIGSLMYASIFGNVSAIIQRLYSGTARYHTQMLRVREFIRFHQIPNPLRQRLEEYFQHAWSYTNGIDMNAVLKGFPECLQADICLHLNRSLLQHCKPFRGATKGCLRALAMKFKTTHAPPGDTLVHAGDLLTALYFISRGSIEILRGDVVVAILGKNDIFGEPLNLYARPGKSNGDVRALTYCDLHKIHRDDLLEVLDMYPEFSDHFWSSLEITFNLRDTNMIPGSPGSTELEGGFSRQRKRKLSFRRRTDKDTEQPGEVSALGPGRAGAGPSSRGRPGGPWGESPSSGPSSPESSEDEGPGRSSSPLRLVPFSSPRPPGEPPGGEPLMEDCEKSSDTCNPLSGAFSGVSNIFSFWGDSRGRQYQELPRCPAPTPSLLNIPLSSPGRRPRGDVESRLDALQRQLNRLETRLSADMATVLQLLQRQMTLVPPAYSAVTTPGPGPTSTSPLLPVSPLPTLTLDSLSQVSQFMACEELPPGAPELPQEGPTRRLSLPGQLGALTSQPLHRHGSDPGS

SMILES | hERG current change (%, negative = inhibition) at 1uM
O=C(C1CCCCC1)N(Cc1ccccc1)c1ccccn1 | 7.48%
Cc1ccc(N(C)C(=O)Oc2cccc3ccc(C)nc23)cc1 | 2.54%
CCCCNC(=S)N(C)/N=C/c1c(F)cccc1F | 5.85%
COCCCNC(=O)C1CCC(CNS(=O)(=O)c2ccc(OC)cc2)CC1 (stereo not shown) | -0.359%
COC(=O)CCC(=O)OC1(C)C(=O)C2=CN(c3ccc(OC)cc3)C(c3ccc(OC)cc3)=CC2=C(Br)C1=O (stereo not shown) | 2.02%
CCC(=NCCc1ccccc1)C1=C(O)CCC1=O | 12.8%
CC(=O)N/C(=N\OCc1ccccc1Cl)c1nonc1NC(C)=O | -2.95%
CCN(CC)S(=O)(=O)c1ccc(C(=O)NC(C)(C)C)cc1 | 11.4%
CC(C)CN(C(=O)CN1C(=O)C2CCCCC2C1=O)c1c(N)n(Cc2ccccc2)c(=O)[nH]c1=O (stereo not shown) | 5.94%
CCN(CC)C(=O)CN1C(=O)/C(=C/c2ccccc2)SC1=S | -2.29%
O=S(=O)(c1ccc(-c2csc(-c3cccnc3)n2)cc1)N1CCCC1 | 3.52%
CC(NCc1ccc(OCc2ccc(Cl)cc2)cc1)C(O)c1ccccc1.Cl (stereo not shown) | -31.1%
O=C(C1=C(O)C(=O)N(Cc2cccnc2)C1c1ccccn1)c1cccs1 (stereo not shown) | 9.79%
COc1ccccc1NC(=S)NCCc1ccc(OC)c(OC)c1 | 7.08%
O=C(c1ccc(F)cc1)N1CCN(C(=O)c2ccc([N+](=O)[O-])cc2)CC1 | -13.7%
COc1ccccc1-n1c(SCC(=O)N2CCOCC2)nc(O)c(Cc2ccccc2)c1=O | 18.4%
O=C(/C=C(/c1ccc(Cl)cc1)n1cncn1)c1ccccc1 | 4.14%
O=C(NCC1CCCO1)c1ccccc1NS(=O)(=O)c1ccc(F)cc1 (stereo not shown) | 11.3%
COc1ccc(-c2[nH]ncc2Oc2ccccc2OC)c(O)c1 | -4.43%
CCN(C(=O)CN1C(=O)S/C(=C\C=C\c2ccccc2)C1=O)C1CCS(=O)(=O)C1 (stereo not shown) | 18.2%
CN(C)S(=O)(=O)c1cc(NC(=O)COC(=O)c2ccc3c(c2)OCO3)ccc1Cl | 12.2%
CC(/C=C/C1[C@H](C)C[C@H](O[C@@H]2O[C@H](CO)[C@@H](O)[C@H](O)[C@H]2O)CC1(C)C)O[C@H]1O[C@H](CO)[C@@H](O)[C@H](O)[C@H]1O (stereo partly shown) | 10.3%

SMILES | hERG current change (%, negative = inhibition) at 1uM
O=[N+]([O-])c1cc([N+](=O)[O-])c(Oc2cc(F)cc(F)c2F)cc1NN1CCCCC1 | 8.95%
COc1ccc(NC(=O)Nc2cccc(NC(C)=O)c2)c(OC)c1 | 17.6%
CCOC(=O)[C@H]1[C@H]2COc3cc(OC)ccc3[C@@H]2N2C(=O)N(c3ccc(Br)cc3)C(=O)[C@@]12C | 10.4%
O=C(COc1ccc(S(=O)(=O)N2CCOCC2)cc1Cl)NCc1ccco1 | 11%
O=C(COC(=O)c1ccccc1[N+](=O)[O-])Nc1cc(S(=O)(=O)N2CCOCC2)ccc1N1CCCC1 | 6.67%
Cl.O=C(CS(=O)(=O)c1ccccc1)N(CCCN1CCOCC1)c1nc2c(F)cccc2s1 | 21.9%
CCc1nccn1S(=O)(=O)c1cc(OC)ccc1OC | 13.4%
O=C(c1ccc2nc(Cc3ccccc3F)oc2c1)N1CCCC1 | 2.92%
CC(=O)Nc1cccc(C(=O)OCC(=O)Nc2ccc(Cl)cn2)c1 | 15.4%
CCOC(=O)C1(Cc2ccccc2Cl)CCN(S(C)(=O)=O)CC1 | 6.64%
O=C(Cc1ccc(Br)cc1)N1CCOCC1 | 10.2%
CCNc1[nH]c(=O)n(C)c(=O)c1N=O | 9.88%
CN(C)C(=O)CSc1nnc(Cc2ccccc2)n1CC1CCCO1 (stereo not shown) | 3.28%
COc1c2occc2c(OC)c2c(=O)cc(C(F)(F)C(F)(F)F)oc12 | 6.75%
O=C(CSc1nc2ccccc2o1)N1CCN(c2ccc(Cl)cc2)CC1 | 9.85%
COc1ccc(SCCN2CCN(CC(C)C)CCC2=O)cc1 | -9.25%
Cc1ccc(/C=N/n2c(-c3cccnc3)n[nH]c2=S)o1 | 8.13%
COc1ccc(C(=O)Nc2ccc(CN3CCS(=O)(=O)CC3)cc2)cc1 | 10.2%
CCc1ccc(CN(C)C(=O)c2cc(=O)c3ccccc3o2)cc1 | -22.7%
CC(=O)NN1C(=O)/C(=C/c2ccc(Br)o2)SC1=S | 12.2%
COc1ccc(OCC(=O)NC(=S)Nc2ccc(N3CCOCC3)c(Cl)c2)cc1 | 0.926%
Cc1cc(NC(=O)c2cc(-c3ccccc3Cl)nc3ccccc23)no1 | 11.9%

SMILES | hERG current change (%, negative = inhibition) at 1uM
Nc1nc(Nc2ccccc2F)nc(NCc2ccco2)c1[N+](=O)[O-] | 5.93%
Cc1ccccc1OCC(O)CN1CCCCC1.Cl (stereo not shown) | 16.2%
NC(=O)C(CC(=O)O)NC(=O)[C@@H]1CCCNc2c(I)cc([N+](=O)[O-])cc2C(=O)N[C@@H](CO)C(=O)N[C@@H](Cc2ccc(O)cc2)C(=O)N1 (stereo partly shown) | 11.6%
CCC(CC)C(=O)c1c[nH]c(C(=O)N2CCN(c3ccc(OC)cc3)CC2)c1 | 7.37%
COc1ccc(OC)c(C(C)NC(=O)c2ccc(Br)cc2)c1 (stereo not shown) | 2.08%
c1ccc2c(c1)CCN(c1ncnc3nc[nH]c13)C2 | 14.3%
Cc1cccc(NC(=O)C2(c3cccs3)CCOCC2)c1 | 4.69%
Oc1cccnc1Sc1cccc(C(F)(F)F)c1 | 21.9%
CC[C@@H](C(=O)n1nc(C)cc1C)[C@H](NS(=O)(=O)c1ccc(C)cc1)c1ccccc1 | 5.06%
COc1cc(/C=C/C(=O)NC(C)(C)C)ccc1OCc1ccccc1 | 6.93%
CSc1c(CC(=O)NCCCO)n(Cc2ccccc2)c2ccccc12 | 8.55%
CCOC(=O)c1ccc(NC(=O)Nc2ncc(Cl)cc2Cl)cc1 | 16.5%
CN1CCN(C(=O)CCN2C(=O)c3ccccc3C2=O)CC1 | 13.8%
Cc1cc(OC(=O)c2ccc(S(=O)(=O)N3CCCC3)cc2)c([N+](=O)[O-])c(=O)[nH]1 | 0.817%
Cc1ccccc1S(=O)(=O)Cc1ccc(C(=O)NCCN2CCCCC2C)o1 (stereo not shown) | -6.49%
CC(c1ccccc1C(O)(c1ccccc1)c1ccccc1)N(C)C (stereo not shown) | 2.37%
O=C(c1ccccc1Cc1ccccc1)N1CCN(S(=O)(=O)c2ccccc2)CC1 | 16%
CN(C)CCc1c[nH]c2ccc(C[C@H]3COC(=O)N3)cc12 | 1.64%
COc1cc(C)c(Cl)cc1S(=O)(=O)NC1CC(C)(C)NC(C)(C)C1 | 21.5%
CCCCCCC(O)(c1ccc(OC)cc1)C(CN1CCOCC1)c1ccccc1.Cl (stereo not shown) | 11.9%
Cl.NCCOc1ccc(C23CC4CC(CC(C4)C2)C3)cc1 | -2.8%
Cc1ccc(C)c(NC(=O)CCN2C(=O)c3ccccc3C2=O)c1 | 15.3%

SMILES | hERG current change (%, negative = inhibition) at 1uM
Cn1c2c(c3cc([N+](=O)[O-])ccc31)CCCC2 | 7.54%
COc1ccccc1CCNC(=O)c1cc(-c2ccccn2)nc2ccc(Br)cc12 | 9.64%
CCOC(=O)NCCc1c(C)nc2c(c(C)nn2C(C)(C)C)c1C | 2%
COc1ccc(N2C(=O)CCC(C(=O)N3CCCCC3)C2c2ccc(F)cc2)cc1 (stereo not shown) | 13.2%
O=C(Nc1c2c(nn1-c1ccccc1)CSC2)c1ccc(N2C(=O)CCC2=O)cc1 | 7.03%
CC(C)CN1CCC(=O)N([C@H](CN=[N+]=[N-])Cc2ccccc2)CC1 | 3.89%
COc1cccc(/C=N/NC(=O)CSCC(=O)Nc2ccccc2)c1O | 5.08%
COc1ccc(Nc2cc(Nc3cccc(OC)c3)ncn2)cc1 | 14.3%
CCOc1ccc(NS(=O)(=O)c2ccc(C(=O)N(C)Cc3cccc(OC)c3OC)cc2)cc1 | 15.1%
CCOC(=O)CN1C(=O)/C(=C2\SC(=S)N(NC(=O)c3cccnc3)C2=O)c2ccccc21 | 7.89%
O=C(NCc1ccco1)C(c1cccs1)N(Cc1ccccc1)C(=O)Cn1nnc2ccccc21 (stereo not shown) | 2.59%
C[C@]12CCC3C(CC[C@H]4C[C@H](N)CC[C@]34C)C1CC[C@H]2O.Cl (stereo partly shown) | 8.71%
CCC(C)(C)n1nnnc1CN(Cc1ccco1)Cc1cc2cc3c(cc2[nH]c1=O)OCO3 | 11.3%
O=C(O)c1cn(-c2ccccc2)nc1-c1ccc(Cl)cc1 | 2.96%
Oc1ccc(/C=N/N2CCCCC2)c(O)c1O | 10%
CCc1nc(SCC(=O)NCC2CCCO2)c2oc3ccccc3c2n1 (stereo not shown) | 12.5%
CCC(=O)Nc1cccc(C(=O)/C=C/c2cccs2)c1 | -3.35%
CCc1ccc(NC(=O)C(=O)NCc2ccccn2)cc1 | 8.72%
O=C(O)c1ccc2c(c1)N(Cc1ccccc1)C(=O)c1ccccc1S2 | 7.87%
